# Data from a collection of fitness landscapes (doi:10.1038/s41467-024-54723-y).
# Whole data set: some 18,000 sequences, median “TetR repression strength (sort-seq, GFP reporter)” near 0.23, cut for the highest 2% near 0.68. Some of the results follow.
# Biological target: TetR (class B, Tn10) (UniProt P04483)
# Assay: TetR repression strength (sort-seq, GFP reporter) (relative to tetO2 = 1); higher = stronger repression
# Conditions: E. coli
# Method in brief: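 E. coli SIG10-MAX carried a low-copy plasmid library with eight randomized operator positions between a constitutive promoter and sfGFP, with TetR constitutively expressed. Cells grew 5 h at 37 °C in LB with 50 µg/mL chloramphenicol, then 10^6 cells were FACS-sorted into 13 fluorescence bins, each Illumina-sequenced. Repression strength is the top bin index plus one minus the read-weighted mean bin, divided by the wild-type operator value. Three independent transformations; variants with ≥30 reads in all replicates and CV ≤0.5 were averaged.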
# Sequence of UniProt P04483 (P04483 whole entry): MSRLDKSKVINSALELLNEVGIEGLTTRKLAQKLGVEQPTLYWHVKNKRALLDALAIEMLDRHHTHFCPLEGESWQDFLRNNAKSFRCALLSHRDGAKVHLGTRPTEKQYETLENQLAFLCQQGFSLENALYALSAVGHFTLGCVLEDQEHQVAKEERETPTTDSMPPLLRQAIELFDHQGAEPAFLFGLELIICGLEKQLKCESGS
row,Sequence,TetR repression strength
1,TCCCACGGAGTAGCCGAGA,0.172
2,TCCCGGGCAGTTTAGGAGA,0.0549
3,TCCCTATTAGTACGTGAGA,0.177
4,TCCCAGTTAGTCCTTGAGA,0.292
5,TCCCGTGGAGTGCAAGAGA,0.377
6,TCCCGTGGAGTGGCAGAGA,0.246
7,TCCCAGATAGTTGCCGAGA,0.166
8,TCCCCAAGAGTCAGGGAGA,0.194
9,TCCCGTATAGTAATTGAGA,0.0979
10,TCCCTGGGAGTGTCAGAGA,0.167
11,TCCCAAGTAGTATTCGAGA,0.242
12,TCCCTTCTAGTCATAGAGA,0.371
13,TCCCCGGTAGTCAGTGAGA,0.49
14,TCCCTTGGAGTTCGTGAGA,0.565
15,TCCCCATGAGTAATTGAGA,0.334
16,TCCCACACAGTTAGGGAGA,0.284
17,TCCCGCTAAGTGATAGAGA,0.69
18,TCCCGCGGAGTACGGGAGA,0.104
19,TCCCAACAAGTGGGTGAGA,0.389
20,TCCCCATTAGTGGTTGAGA,0.0555
21,TCCCCTTAAGTGTAGGAGA,0.206
22,TCCCTAGTAGTGGACGAGA,0.415
23,TCCCGTTGAGTATGTGAGA,0.181
24,TCCCGGTCAGTCCAGGAGA,0.238
25,TCCCCCTGAGTTGTGGAGA,0.355
26,TCCCGGGAAGTTGTGGAGA,1.1

row,Sequence,TetR repression strength
1,TCCCACTTAGTCAGCGAGA,0.273
2,TCCCCGCTAGTCATTGAGA,0.236
3,TCCCGTTGAGTGGAGGAGA,0.201
4,TCCCGTGGAGTCACGGAGA,0.0633
5,TCCCACGGAGTGTTAGAGA,0.317
6,TCCCGCTCAGTGTCAGAGA,0.244
7,TCCCGAGTAGTCTAGGAGA,0.142
8,TCCCAACCAGTTAGTGAGA,0.298
9,TCCCAGTTAGTTACGGAGA,0.149
10,TCCCAGGGAGTCGTGGAGA,0.11
11,TCCCCTTTAGTGCGGGAGA,0.206
12,TCCCGAGTAGTACTCGAGA,0.0848
13,TCCCAGTGAGTCAGGGAGA,0.456
14,TCCCGGACAGTCATGGAGA,0.192
15,TCCCACTAAGTCGGGGAGA,0.156
16,TCCCTTTGAGTTGCTGAGA,0.319
17,TCCCCTTTAGTTAATGAGA,0.471
18,TCCCGCTAAGTTTGGGAGA,0.0197
19,TCCCTAGCAGTGATCGAGA,0.659
20,TCCCACTGAGTTCTTGAGA,0.195
21,TCCCTCTGAGTTCATGAGA,0.243
22,TCCCTGTGAGTCAACGAGA,0.19
23,TCCCGATGAGTGGATGAGA,0.174
24,TCCCGGGGAGTTGCAGAGA,0.254
25,TCCCGGCGAGTCAGTGAGA,0.317
26,TCCCATTCAGTCGTTGAGA,0.4

row,Sequence,TetR repression strength
1,TCCCTTACAGTCGTTGAGA,0.329
2,TCCCACTCAGTGAATGAGA,0.521
3,TCCCTTTTAGTCTCGGAGA,0.256
4,TCCCGGGGAGTAGTGGAGA,0.229
5,TCCCTTGGAGTTTTGGAGA,0.222
6,TCCCAAGTAGTAGGTGAGA,0.0868
7,TCCCTGCAAGTCTAAGAGA,0.161
8,TCCCAGTGAGTAGGGGAGA,0.202
9,TCCCCCGGAGTGTCAGAGA,0.171
10,TCCCGACCAGTTGACGAGA,0.109
11,TCCCAGTGAGTCCCTGAGA,0.154
12,TCCCTTCCAGTTTGGGAGA,0.207
13,TCCCGGGAAGTGGAAGAGA,0.246
14,TCCCCAGCAGTCGGTGAGA,0.211
15,TCCCATGCAGTTTGTGAGA,0
16,TCCCCATTAGTGGTAGAGA,0.0779
17,TCCCAGGTAGTGCTAGAGA,0.21
18,TCCCTCGAAGTGACGGAGA,0.417
19,TCCCAGCGAGTTAGAGAGA,0.815
20,TCCCTGTGAGTCAAGGAGA,0.37
21,TCCCCGTCAGTGGTTGAGA,0.134
22,TCCCAGCCAGTAGGGGAGA,0.152
23,TCCCAGACAGTGATAGAGA,0.384
24,TCCCTTTAAGTCATGGAGA,0.0968
25,TCCCCTGGAGTGGTGGAGA,0.0678
26,TCCCTTGTAGTTAAAGAGA,0.218

row,Sequence,TetR repression strength
1,TCCCGGTTAGTTTTGGAGA,0.543
2,TCCCGGTGAGTTTTGGAGA,0.296
3,TCCCATCCAGTGATAGAGA,0.626
4,TCCCTATAAGTCTGGGAGA,0.203
5,TCCCGGCAAGTTGTAGAGA,0.209
6,TCCCGGATAGTGCTGGAGA,0.447
7,TCCCAGGCAGTGGATGAGA,0.177
8,TCCCATTAAGTAGGCGAGA,0.297
9,TCCCTTTTAGTATGCGAGA,0.292
10,TCCCGGCGAGTGAAGGAGA,0.262
11,TCCCCAAGAGTCCGGGAGA,0.205
12,TCCCGTTGAGTGTTGGAGA,1.1
13,TCCCATGTAGTCGTCGAGA,0.183
14,TCCCATCCAGTTGTTGAGA,0.37
15,TCCCTGCTAGTCGGAGAGA,0.421
16,TCCCATTCAGTCGGGGAGA,0.598
17,TCCCCATCAGTGTGTGAGA,0.116
18,TCCCTGTCAGTCATAGAGA,0.617
19,TCCCATTTAGTTTATGAGA,0.0199
20,TCCCGCGGAGTTCGCGAGA,0.117
21,TCCCGCTGAGTTCGGGAGA,0.202
22,TCCCACCTAGTAGGCGAGA,0.152
23,TCCCGCAAAGTTGTTGAGA,0.161
24,TCCCGAAGAGTGAGCGAGA,0.381
25,TCCCCACGAGTCCATGAGA,0.442
26,TCCCTGAAAGTGTGCGAGA,0.316

row,Sequence,TetR repression strength
1,TCCCCGCTAGTGAGCGAGA,0.0751
2,TCCCTTCCAGTGCAGGAGA,0.281
3,TCCCTAACAGTACCAGAGA,0.243
4,TCCCCATAAGTACAAGAGA,0.446
5,TCCCGAGCAGTACTCGAGA,0.028
6,TCCCCCAGAGTGCGAGAGA,0.329
7,TCCCGGACAGTCACTGAGA,0.203
8,TCCCAATGAGTCGAAGAGA,0.29
9,TCCCATCTAGTGTAGGAGA,0.398
10,TCCCCTCAAGTTAGGGAGA,0.304
11,TCCCGTGTAGTGTGGGAGA,0.227
12,TCCCGCTGAGTAGGTGAGA,0.0602
13,TCCCGCCCAGTAGATGAGA,0.279
14,TCCCTTCTAGTCGATGAGA,0.334
15,TCCCAACAAGTCGCGGAGA,0.0424
16,TCCCCGAAAGTATAAGAGA,0.409
17,TCCCCGACAGTCTAGGAGA,0.215
18,TCCCCTACAGTTTTTGAGA,0.505
19,TCCCAGCCAGTGTGGGAGA,0.225
20,TCCCGGTGAGTGTAAGAGA,0.268
21,TCCCAAACAGTGGTGGAGA,0.231
22,TCCCGGAAAGTTCATGAGA,0.258
23,TCCCTGGTAGTTAGTGAGA,0.141
24,TCCCGTTGAGTAGGTGAGA,0.0797
25,TCCCTCGGAGTGAGCGAGA,0.0259
26,TCCCCTTGAGTTTAAGAGA,0.274

row,Sequence,TetR repression strength
1,TCCCGAGGAGTGTTCGAGA,0.224
2,TCCCTGGGAGTTAAGGAGA,0.144
3,TCCCCGTTAGTCATGGAGA,0.166
4,TCCCTTAGAGTCCTGGAGA,0.0777
5,TCCCTCACAGTGATAGAGA,0.513
6,TCCCTAACAGTTAGGGAGA,0.121
7,TCCCATCCAGTATCAGAGA,0.166
8,TCCCTATAAGTCAGCGAGA,0.32
9,TCCCTACGAGTTGTCGAGA,0.314
10,TCCCTCCAAGTTCTTGAGA,0.464
11,TCCCAGGTAGTACTAGAGA,0.299
12,TCCCGTCGAGTGCAAGAGA,0.433
13,TCCCTGGTAGTTCAGGAGA,0.18
14,TCCCGTCAAGTGTTTGAGA,0.394
15,TCCCGGCTAGTAGTTGAGA,0.295
16,TCCCTCGCAGTGGGCGAGA,0.256
17,TCCCGTTCAGTTAGGGAGA,0.248
18,TCCCTACTAGTCAGAGAGA,0.179
19,TCCCCTATAGTTAGCGAGA,0.122
20,TCCCAGTGAGTGAGAGAGA,0.451
21,TCCCCTGGAGTGTTTGAGA,0.298
22,TCCCTGGGAGTGGATGAGA,0.162
23,TCCCGACGAGTGCACGAGA,0.17
24,TCCCGTGTAGTACTGGAGA,0.299
25,TCCCTTAGAGTGGCGGAGA,0.198
26,TCCCGCTCAGTGCGTGAGA,0.238

row,Sequence,TetR repression strength
1,TCCCGGCTAGTACGGGAGA,0.244
2,TCCCCTGGAGTCGAAGAGA,0.292
3,TCCCACTGAGTAATTGAGA,0.415
4,TCCCAGGTAGTGAAGGAGA,0.478
5,TCCCTAGTAGTTGCGGAGA,0.322
6,TCCCGAACAGTAGATGAGA,0.263
7,TCCCTGTGAGTACCCGAGA,0.152
8,TCCCCCTGAGTGGAAGAGA,0.123
9,TCCCGTGAAGTGTGGGAGA,0.181
10,TCCCGAGGAGTAACGGAGA,0.192
11,TCCCGCGTAGTTTGGGAGA,0.405
12,TCCCTTCTAGTAGGGGAGA,0.424
13,TCCCTCTTAGTCGTTGAGA,0.269
14,TCCCCGCTAGTCATGGAGA,0.303
15,TCCCCTGGAGTGTGGGAGA,0.214
16,TCCCCAACAGTGTGCGAGA,0.196
17,TCCCGGCGAGTGGTGGAGA,0.186
18,TCCCGTATAGTGTCCGAGA,0.0863
19,TCCCGTTTAGTGCCGGAGA,0.0842
20,TCCCTGACAGTCATGGAGA,0.119
21,TCCCACGAAGTAATAGAGA,0.379
22,TCCCGGCAAGTCGAAGAGA,0.193
23,TCCCACCAAGTTGACGAGA,0.306
24,TCCCCCCGAGTGCATGAGA,0.565
25,TCCCTACAAGTTAGTGAGA,0.14
26,TCCCTACGAGTCGAGGAGA,0.394

row,Sequence,TetR repression strength
1,TCCCGCATAGTAGAAGAGA,0.119
2,TCCCTAGAAGTCTAGGAGA,0.252
3,TCCCGAGTAGTGCGAGAGA,0.43
4,TCCCATCGAGTTTGTGAGA,0.426
5,TCCCCCCGAGTTAGGGAGA,0.37
6,TCCCTCTAAGTTATCGAGA,0.311
7,TCCCGTTTAGTAGCGGAGA,0.253
8,TCCCTAACAGTCCACGAGA,0.205
9,TCCCCTGGAGTAACGGAGA,0.0466
10,TCCCGTGAAGTCGGGGAGA,0.215
11,TCCCACTTAGTGAGGGAGA,0.0283
12,TCCCTGATAGTCTTGGAGA,0.231
13,TCCCCGACAGTGACTGAGA,0.207
14,TCCCGAATAGTTGGAGAGA,0.556
15,TCCCAAAAAGTTAACGAGA,0.249
16,TCCCGCCTAGTAGGTGAGA,0.253
17,TCCCTACCAGTTAGGGAGA,0.281
18,TCCCATTTAGTGTTTGAGA,0.455
19,TCCCGCGCAGTGGTGGAGA,0.19
20,TCCCTACCAGTCGGAGAGA,0.278
21,TCCCGCACAGTTAACGAGA,0.31
22,TCCCCGGCAGTCCACGAGA,0.191
